In the supplement of paper PMC10126150 one finds switch fluorescence ratio data, which are given here for 67 sequences.

Sequences with one replicate were seen in a single cluster, so their values are uncertain.
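Further: ATP exposure 15 min at 22 °C before imaging.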

The subject of this series is ATP. The experiment in a line: switch fluorescence ratio, 500 uM ATP over buffer (Cy3 cluster intensity, sum of 5 cycles each) (fold (ratio)); higher = stronger signal-on switching upon ATP binding; sequences stand for … in TCGTCGGCAGCGTCAGATGTGTATAAGAGACAGTTTTTTTTTTTTTTTTTTTTTTTTT…TC. The conditions noted are these: aptamer strand: ATP DNA aptamer (quencher-CACCTGGGGGAGTATTGCGGAGGAAGG + anchor), 100 nM annealed; ATP concentration: 500 uM; one replicate. The procedure, abridged: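 Switching-strand clusters labelled with Cy3 on a modified Illumina MiSeq flow-cell were annealed to 100 nM quencher-labelled ATP aptamer, imaged in selection buffer, and re-imaged after 15 min with 500 uM ATP at 22 °C. This was done over five cycles with NaOH stripping and re-annealing in between. The fluorescence ratio is summed target-cycle over summed buffer-cycle Cy3 intensity per cluster, averaged per switch-domain sequence, excluding clusters outside 100-1000 RFU.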
Consider GGGGAGCCAT, for which the switch fluorescence ratio turned out to be 1.02.

CCTGTTAACG: the switch fluorescence ratio amounted to 1.03.

As to TTAGCAGGG, the switch fluorescence ratio came out at 0.994.

On to CGAGTGCATG, for which the switch fluorescence ratio amounted to 1.01.

Regarding GCGGGACTCT, the switch fluorescence ratio was 0.987.

For the sequence CGCCTCCTTG, the switch fluorescence ratio turned out to be 1.07.

With GAATCTGCCA, the switch fluorescence ratio is 1.05.

With CCGCCGGTCC, the switch fluorescence ratio amounted to 2.73.

As to AAGGCTGGAG, the switch fluorescence ratio was 0.977.

Turning to AAACCGTCTG, the switch fluorescence ratio is 1.03.

For the sequence ATTGGCGATC, the switch fluorescence ratio amounted to 0.99.

For the sequence GTTTACTTTC, the switch fluorescence ratio was 1.03.

Turning to TCTGGACGGA, the switch fluorescence ratio came out at 0.99.

Turning to ACCATCTTGA, the switch fluorescence ratio came to 1.03.

With GAAAAAAGAA, the switch fluorescence ratio came to 0.974.

As to CCGGATGGTT, the switch fluorescence ratio worked out at 1.39.

Regarding TCTTGGTGGG, the switch fluorescence ratio stood at 1.02.

With ATAGCGCGT, the switch fluorescence ratio stood at 0.993.

For CAACCGAATT, the switch fluorescence ratio is 1.72.

Turning to GAGCTGGGAC, the switch fluorescence ratio came out at 1.06.

Consider GTGGCGATAG, for which the switch fluorescence ratio was 1.08.

On to CTACTTACGG, for which the switch fluorescence ratio turned out to be 1.52.

With ACGGCGGACC, the switch fluorescence ratio was determined as 1.08.

With TTGTCGAAGA, the switch fluorescence ratio was found to be 0.991.

As for CTGAACCCAG, the switch fluorescence ratio was 1.07.

As to CGTGGAAGGC, the switch fluorescence ratio worked out at 1.05.

Consider GTTCTCATAT, for which the switch fluorescence ratio was 0.995.

In the case of AAGCCGTCTG, the switch fluorescence ratio was determined as 1.08.

With GATGAACTAG, the switch fluorescence ratio turned out to be 0.994.

Take AGGTGAGGAA: the switch fluorescence ratio was 1.04.

For the sequence GTGGACCCCT, the switch fluorescence ratio turned out to be 1.01.

Regarding TCCGAATTGA, the switch fluorescence ratio stood at 1.05.

Turning to GCTAACGTAT, the switch fluorescence ratio was determined as 1.06.

With AAAGCAGCGG, the switch fluorescence ratio came to 1.01.

Consider ATTCGCGGGG, for which the switch fluorescence ratio turned out to be 1.04.

As for GGCGTAATGG, the switch fluorescence ratio was 1.19.

In the case of ATGAGGCTAG, the switch fluorescence ratio came to 0.97.

In the case of ATCAGTAAGA, the switch fluorescence ratio is 0.985.

Turning to TGCGATCCCG, the switch fluorescence ratio was 0.999.

In the case of GTGGCATGTG, the switch fluorescence ratio is 1.02.

With CTTTTCGGAA, the switch fluorescence ratio came to 1.06.

Regarding CCAGCGCTCG, the switch fluorescence ratio was determined as 1.07.

As to ACTCGAGAAT, the switch fluorescence ratio came to 1.03.

In the case of GTGCAAACAC, the switch fluorescence ratio came out at 1.01.

CTTGATTAGA: the switch fluorescence ratio worked out at 0.963.

As to TTAAATGGGC, the switch fluorescence ratio turned out to be 0.985.

In the case of CTCGTACCGT, the switch fluorescence ratio was 0.955.

For GCACTTACGG, the switch fluorescence ratio is 1.48.

With ACGAAACTTA, the switch fluorescence ratio came to 1.16.

For the sequence ACAAAGAAGT, the switch fluorescence ratio stood at 0.936.

Take TGTTCATTTA: the switch fluorescence ratio was found to be 1.

As to AGCAAGGCAT, the switch fluorescence ratio came to 1.04.

Turning to TTTCTCGGTC, the switch fluorescence ratio amounted to 0.965.

Take GTTCCACGGG: the switch fluorescence ratio is 1.01.

With CCAGGA, the switch fluorescence ratio amounted to 1.03.

On to AAGGCACGTC, for which the switch fluorescence ratio came to 0.998.

Regarding TTTTCGGGTC, the switch fluorescence ratio came out at 0.973.

For ACGCGCAGAT, the switch fluorescence ratio was 1.66.

With GCTCAGGGCC, the switch fluorescence ratio was determined as 1.01.

As for TCTCTGCCGG, the switch fluorescence ratio was determined as 1.04.

For the sequence CCCGACGGGG, the switch fluorescence ratio amounted to 1.19.

On to CACGCGCGCA, for which the switch fluorescence ratio amounted to 1.05.

For the sequence GCTTTGGCG, the switch fluorescence ratio turned out to be 1.01.

On to TGCATTCAG, for which the switch fluorescence ratio worked out at 1.02.

Take TGCGCTTCTC: the switch fluorescence ratio was determined as 1.12.

With CGTTCGTGCT, the switch fluorescence ratio is 0.997.

Consider TCGGTCGCGT, for which the switch fluorescence ratio is 0.989.
